# Experimental data: the supplement of paper PMC7826260
# This is one part of the list. Cleavage of a single-stranded DNA pool by Rep nickase domains was read by sequencing for 1 h at 37 °C with 3 µM enzyme; only the middle of the 90-letter strands is printed. A value is the log2 ratio of uncut reads to the pool without enzyme; the lower, the more was cut; hits are not called. Reads are scaled to the total, so uncut sequences can rise above 0 when many others are cut.
# System: T1, Rep nickase domain of porcine circovirus 2
# T1 sequence (residues 2-116 of Rep, tag left off): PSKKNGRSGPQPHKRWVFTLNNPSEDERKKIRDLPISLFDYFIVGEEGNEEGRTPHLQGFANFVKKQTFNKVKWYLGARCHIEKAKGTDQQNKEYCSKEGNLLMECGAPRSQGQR
# Experiment: uncleaved DNA left, log2 of reads against the no-enzyme library (log2 ratio); higher = less cleavage (more negative = more Rep cleavage of the k-mer); sequences stand for … in CTCGTCCG…ACCGGAGA
# Experimental: (§1)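 A pool of 90-nt single-stranded DNAs with seven random bases just before the constant AC of the nick site (name = the seven bases) was cut by 3 µM recombinant His6-SUMO-tagged Rep nickase domain (300 nM DNA, 50 mM HEPES pH 8.0, 50 mM NaCl, 1 mM MnCl2, 1 h, 37 °C, three replicates). Uncut DNA was amplified and sequenced.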
row,Sequence,uncleaved DNA left (log2)
1,GACGATC,0.0494
2,CACCGAC,0.031
3,AATCCAG,0.095
4,AGACTTC,0.0311
5,CCTCGCA,0.13
6,CGGACCC,0.12
7,AAGTTAG,-0.0384
8,TGGTAAG,0.157
9,AGATCTC,0.00843
10,GCACCAG,0.0552
11,AACCATC,-0.354
12,CTGGAAA,0.0738
13,AAATAAT,-4.13
14,ACTAGGA,0.0739
15,ATAATCG,0.0686
16,TTCTTCT,-2.83
17,TCTTTGA,0.012
18,GCTAGCA,0.0297
19,GGGTAGG,0.261
20,ACACCAG,0.0907

row,Sequence,uncleaved DNA left (log2)
1,GTGATGT,0.0283
2,ACACCTC,0.00374
3,AAGTCGA,-1.27
4,GGGCGTG,0.148
5,GTTATAC,0.00189
6,TCCCACC,-0.461
7,ACGAGTA,-0.226
8,CGCTGGG,0.187
9,GTCCCGT,0.0207
10,GGCCTGA,0.0683
11,TGCTGTG,0.0506
12,CGGTCCC,0.0826
13,TGCCTTC,0.0545
14,CAGACAT,-0.584
15,TCAACCG,-0.0461
16,GTAGCGA,0.103
17,GGACCCT,0.00157
18,CTTATCT,-0.364
19,GCGAGGG,-0.0176
20,AAGTGAG,0.291

# System: T2, Rep nickase domain of tomato golden mosaic virus
# T2 sequence (residues 1-124 of Rep, tag left off): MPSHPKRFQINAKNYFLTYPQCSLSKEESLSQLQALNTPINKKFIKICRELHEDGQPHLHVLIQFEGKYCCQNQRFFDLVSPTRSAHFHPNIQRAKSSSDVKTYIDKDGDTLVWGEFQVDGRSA
# Experiment: as above
# Experimental: as §1
row,Sequence,uncleaved DNA left (log2)
1,GACGATC,0.0306
2,CACCGAC,-0.0854
3,AATCCAG,-0.0428
4,AGACTTC,-0.157
5,CCTCGCA,0.105
6,CGGACCC,0.104
7,AAGTTAG,-0.0501
8,TGGTAAG,0.141
9,AGATCTC,0.0599
10,GCACCAG,-0.0383
11,AACCATC,-0.114
12,CTGGAAA,0.144
13,AAATAAT,-3.83
14,ACTAGGA,-0.0354
15,ATAATCG,-0.0207
16,TTCTTCT,-0.0517
17,TCTTTGA,-0.0348
18,GCTAGCA,-0.00971
19,GGGTAGG,0.139
20,ACACCAG,-0.071

row,Sequence,uncleaved DNA left (log2)
1,GTGATGT,0.0761
2,ACACCTC,0.0394
3,AAGTCGA,0.00437
4,GGGCGTG,0.033
5,GTTATAC,0.0559
6,TCCCACC,-0.0898
7,ACGAGTA,0.0714
8,CGCTGGG,0.0822
9,GTCCCGT,0.0455
10,GGCCTGA,0.0106
11,TGCTGTG,-0.0907
12,CGGTCCC,-0.0673
13,TGCCTTC,0.0373
14,CAGACAT,-0.0203
15,TCAACCG,-0.0941
16,GTAGCGA,-0.187
17,GGACCCT,-0.066
18,CTTATCT,-0.157
19,GCGAGGG,0.00891
20,AAGTGAG,0.117

# System: T3, Rep nickase domain of tomato yellow leaf curl virus
# T3 sequence (residues 1-136 of Rep, tag left off): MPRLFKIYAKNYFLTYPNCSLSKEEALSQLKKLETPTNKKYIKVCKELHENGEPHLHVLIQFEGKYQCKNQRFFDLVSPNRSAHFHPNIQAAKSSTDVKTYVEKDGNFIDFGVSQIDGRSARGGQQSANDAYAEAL
# Experiment: as above
# Experimental: as §1
row,Sequence,uncleaved DNA left (log2)
1,GACGATC,0.166
2,CACCGAC,0.0768
3,AATCCAG,0.0913
4,AGACTTC,-0.0652
5,CCTCGCA,-0.0341
6,CGGACCC,-0.0119
7,AAGTTAG,0.0934
8,TGGTAAG,-0.0326
9,AGATCTC,0.0218
10,GCACCAG,0.0246
11,AACCATC,-0.0709
12,CTGGAAA,0.105
13,AAATAAT,-1.1
14,ACTAGGA,-0.0534
15,ATAATCG,-0.1
16,TTCTTCT,0.0789
17,TCTTTGA,0.0262
18,GCTAGCA,0.105
19,GGGTAGG,0.0609
20,ACACCAG,-0.0706

row,Sequence,uncleaved DNA left (log2)
1,GTGATGT,0.0632
2,ACACCTC,-0.223
3,AAGTCGA,-0.106
4,GGGCGTG,-0.0827
5,GTTATAC,0.0422
6,TCCCACC,-0.0553
7,ACGAGTA,-0.165
8,CGCTGGG,0.0501
9,GTCCCGT,0.102
10,GGCCTGA,0.0503
11,TGCTGTG,-0.0324
12,CGGTCCC,0.147
13,TGCCTTC,0.0971
14,CAGACAT,0.0771
15,TCAACCG,-0.0786
16,GTAGCGA,-0.0281
17,GGACCCT,-0.0111
18,CTTATCT,0.0781
19,GCGAGGG,-0.0668
20,AAGTGAG,0.0611
